# Measured values: PubChem BioAssay AID588342 (National Center for Advancing Translational Sciences (NCATS), 2011)
# Hit rate of the full screen: of about 360,000 compounds, about 25,000 (6.9%) were called active. The shares of active, inactive and inconclusive entries below differ from those in the screen. Calls come from the whole dose curve; as a rule, active = well fitted inhibition curve with a large enough effect; inconclusive = small, poorly fitted or top-dose-only effect; inactive = flat fitted curve, though single readings scatter. Potencies of inconclusive entries are doubtful fits and often do not repeat.
# Biological target: Luciferin 4-monooxygenase (Photinus pyralis) (UniProt P08659)
# Chain of UniProt P08659 (P08659 whole entry, looked up): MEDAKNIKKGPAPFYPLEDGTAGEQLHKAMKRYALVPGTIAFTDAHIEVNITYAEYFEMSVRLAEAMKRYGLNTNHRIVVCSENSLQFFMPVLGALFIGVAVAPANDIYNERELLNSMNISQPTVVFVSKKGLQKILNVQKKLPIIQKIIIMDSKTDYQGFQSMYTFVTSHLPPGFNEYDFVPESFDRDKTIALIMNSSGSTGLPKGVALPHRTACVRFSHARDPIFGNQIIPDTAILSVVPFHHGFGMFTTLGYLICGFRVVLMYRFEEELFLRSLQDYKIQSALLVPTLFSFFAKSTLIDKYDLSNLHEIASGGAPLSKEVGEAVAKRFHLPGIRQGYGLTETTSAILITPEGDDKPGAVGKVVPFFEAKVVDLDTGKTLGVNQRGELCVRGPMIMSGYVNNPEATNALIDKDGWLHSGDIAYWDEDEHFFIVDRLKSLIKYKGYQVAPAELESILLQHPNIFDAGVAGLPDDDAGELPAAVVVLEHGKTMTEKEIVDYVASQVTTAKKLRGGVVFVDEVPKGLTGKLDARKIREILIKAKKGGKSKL
# Assay: qHTS profiling assay for firefly luciferase inhibitor/activator using purifed enzyme and Km concentrations of substrates (counterscreen for miR-21 project); note: nearly all actives have a fitted effect of over 55% in size
# Details: purified FLuc, luminescence inhibition; series mostly up to 57.5 µM
# Outline: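 Purified P. pyralis luciferase (10nM final) with 10uM D-luciferin and 10uM ATP (Km levels) in 50mM Tris acetate pH 7.5, 10mM Mg acetate, 0.01% Tween-20, 0.05% BSA; qHTS 6-point titration, ~60 µM downward; luminescence read.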
# Potency is the fitted concentration of half-maximal effect; tags give direction and shape of the fitted curve.
row,Structure (SMILES),Potency
1,COc1ccc(C2C=C(c3ccc(Cl)c(Cl)c3)Nc3ncnn32)cc1 (stereo unspecified),"inconclusive: 15.1 µM [inhibitor, partial curve, poor fit]"
2,CCOc1ccc(NC(=O)NC(C)CC)cc1 (stereo unspecified),"inconclusive: 37.9 µM [inhibitor, partial curve, poor fit]"
3,O=[N+]([O-])c1ccccc1OCCOc1ccccc1[N+](=O)[O-],inactive
4,COC(=O)c1ccccc1S(=O)(=O)N1CCC(C(=O)OCc2ccc([N+](=O)[O-])cc2)CC1,inactive
5,CC(C)Oc1cc(O)c2c(=O)c(-c3ccc(O)cc3)coc2c1,active: 5.36 µM
6,O=C(NN=C1CCN(Cc2ccccc2)CC1)c1cc(Br)ccc1O,"inconclusive: 26.9 µM [inhibitor, single point]"
7,O=C(C1COc2ccccc2O1)N1CCN(Cc2ccccc2)CC1 (stereo unspecified),"inconclusive: 21.3 µM [inhibitor, partial curve, poor fit]"
8,COc1ccc(-n2c(=O)[nH]c3cc(C(=O)NCCc4ccccc4)ccc3c2=O)cc1OC,inactive
9,O=C(COc1ccccc1)Nc1ccc2nc(SCC(=O)N3CCOCC3)sc2c1,"inconclusive: 19 µM [inhibitor, partial curve]"
10,O=C(CN1C(=O)C2C3C=CC(C4CC34)C2C1=O)Nc1cccc2ncccc12 (stereo unspecified),"inconclusive: 37.9 µM [inhibitor, single point]"
11,O=C(Nc1ccccc1Cl)c1sc2cccc(Cl)c2c1Cl,"inconclusive: 9.53 µM [inhibitor, partial curve]"
12,CCCOc1ccc(-c2nc(C#N)c(N3CCN(C)CC3)o2)cc1,"inconclusive: 21.3 µM [inhibitor, partial curve, poor fit]"
13,Cc1c(CCC(=O)NCCCn2ccnc2)c(=O)oc2cc3oc4c(c3cc12)CCCC4,"inconclusive: 37.9 µM [inhibitor, single point]"
14,Cc1cc(C(=O)NCC(C)(C)N2CCOCC2)c(C)o1,inactive
15,COc1ccc2nc(Nc3nc(-c4cc5ccccc5oc4=O)cs3)sc2c1,active: 0.849 µM
16,COc1ccccc1/C=C/C(=O)OCC(=O)c1c(N)n(C)c(=O)n(C)c1=O,inactive
17,O=C(CCNS(=O)(=O)c1ccccc1)N1CCCCCC1,inactive
18,Nc1nc(-c2cc3c(cc2Cl)OCCO3)cs1,"inconclusive: 37.9 µM [inhibitor, partial curve, poor fit]"
19,COc1ccc(Nc2cc(C(=O)NCCCN3CCOCC3)c3ccccc3n2)c(OC)c1,"inconclusive: 19 µM [inhibitor, partial curve]"
20,CCCCNC(=O)C1CCN(S(=O)(=O)c2c(C)noc2/C=C\c2ccc(OC)cc2)CC1,inactive
21,Cc1ccc(Cl)cc1N1CCN(S(=O)(=O)c2ccc3c(c2)CCN3C(=O)C2CCC2)CC1,inactive
22,Cc1cc(OC(=O)c2ccc(Cl)cc2Cl)nc(C)n1,"inconclusive: 30.1 µM [inhibitor, partial curve, poor fit]"
23,CCOC(=O)c1cnc(SCc2cccc3ccccc23)nc1N,"inconclusive: 26.9 µM [inhibitor, single point]"
24,CC(C)c1nc2ccc(C(=O)Nc3ccccc3F)cc2o1,"inconclusive: 23.9 µM [inhibitor, single point]"

row,Structure (SMILES),Potency
1,Cc1coc2c1C(=O)C(=O)c1c-2ccc2c(C)cccc12,"inconclusive: 10.7 µM [inhibitor, partial curve, poor fit]"
2,O=[N+]([O-])c1cccc(/C=N/Nc2cc(Cl)nc(-c3ccccc3)n2)c1,"inconclusive: 13.5 µM [inhibitor, partial curve]"
3,CCOC(=O)CC(=O)CSc1nc(C)nc2c1oc1ccccc12,"inconclusive: 15.1 µM [inhibitor, partial curve]"
4,COC(=O)c1cccc2nc3c(C(C)O)cccc3nc12 (stereo unspecified),"inconclusive: 23.9 µM [inhibitor, single point]"
5,O=C(NCCCc1ccccc1)[C@@H]1Cc2ccccc2CN1,inactive
6,O=C(N/N=C\c1cccc([N+](=O)[O-])c1O)C1COc2ccccc2O1 (stereo unspecified),active: 19 µM
7,O=C(Nc1ccc(N2CCOCC2)cc1)NC1CCCCC1,"inconclusive: 30.1 µM [inhibitor, partial curve, poor fit]"
8,COc1ccccc1OC(C)C(=O)Nc1cccc(-c2nc3ccccc3o2)c1 (stereo unspecified),"inconclusive: 12 µM [inhibitor, partial curve]"
9,Cc1cccc(COc2ncnc3nc[nH]c23)c1,"inconclusive: 37.9 µM [inhibitor, partial curve, poor fit]"
10,Cc1cc(C)n2c(=S)[nH]nc2n1,"inconclusive: 33.8 µM [inhibitor, single point]"
11,CC1=NN2C(=N)/C(=C\c3cc(C)n(-c4cccc(C)c4)c3C)C(=O)N=C2S1,"inconclusive: 21.3 µM [inhibitor, single point]"
12,Cc1ccc(-c2csc(-c3cc4c([nH]c3=O)CC(c3ccccc3)CC4=O)n2)cc1 (stereo unspecified),inactive
13,CCC(COC)NCc1cn(-c2ccc(OC)cc2)nc1-c1cccc(F)c1 (stereo unspecified),inactive
14,COc1ccc2oc(=O)c(-c3nnc(-c4ccc(C)cc4)o3)cc2c1,inactive
15,Cc1sc(NC(=O)/C=C/c2ccc(C(C)C)cc2)c(C#N)c1C,inactive
16,COc1ccc(N/C=C\C(=O)c2ccc(Br)cc2)cc1OC,"inconclusive: 1.69 µM [inhibitor, partial curve, poor fit]"
17,Cc1c(NC(=O)OCCNC(=O)COc2ccc(Cl)cc2Cl)sc(=S)n1C,"inconclusive: 23.9 µM [inhibitor, single point]"
18,CC(=O)c1ccc(NC(=O)C(C)Sc2nnc(C3CCCCC3)o2)cc1 (stereo unspecified),inactive
19,O=C(O)C1CCN(C(=O)COc2ccc3c(c2)oc(=O)c2ccccc23)CC1,"inconclusive: 21.3 µM [inhibitor, single point]"
20,Cc1ccc(C(=O)OCC(=O)NCc2cccs2)c(C)c1,"inconclusive: 10.7 µM [inhibitor, partial curve, poor fit]"
21,CCC(C)(C)C1CCC2(CC1)NC(=O)N(CC(=O)N(C)CCOc1ccc(Cl)cc1)C2=O (stereo unspecified),inactive
22,O=C(C1CCN(c2ncnc3c2sc2cccc(F)c23)CC1)N1CCCC1,"inconclusive: 37.9 µM [inhibitor, single point]"
23,COc1ccc(/C=C/C(=O)Nc2cccc(C(C)=O)c2)cc1,active: 0.953 µM
24,Cc1ccc(Nc2c(-c3ccc(Br)o3)nc3ccccn23)cc1,"inconclusive: 7.57 µM [inhibitor, partial curve, poor fit]"

row,Structure (SMILES),Potency
1,Cc1ccc(C)c(NC(=O)CCC(=O)N/N=C/c2ccc3c(c2)OCO3)c1,active: 10.7 µM
2,N#Cc1ccc(COc2cccc3cccnc23)cc1,"inconclusive: 23.9 µM [inhibitor, partial curve, poor fit]"
3,COC(=O)c1ccc(NC(=O)CCN2C(=O)C3C4CCC(C4)C3C2=O)cc1 (stereo unspecified),inactive
4,COc1ccc(CNC(=O)c2ccc3c(=O)n(CCCN4CCCC4=O)c(=S)[nH]c3c2)cc1,"inconclusive: 15.1 µM [inhibitor, partial curve, poor fit]"
5,Cc1ccc(-c2nc(CS(=O)(=O)CC(=O)Nc3ccc(Br)cc3F)c(C)o2)cc1,inactive
6,COC(=O)CSc1nnc(-c2cccc(NC(=O)c3ccc(C)cc3)c2)n1C,active: 23.9 µM
7,CC(=O)c1ccc(NC(=O)c2ccc3snnc3c2)cc1,"inconclusive: 2.69 µM [inhibitor, partial curve, poor fit]"
8,OC[C@@H](O)[C@H](O)C(/C=N/Nc1ccccc1)=N\Nc1ccccc1,"inconclusive: 37.9 µM [inhibitor, partial curve, poor fit]"
9,Cc1ccccc1OCc1nc2c3c(ncn2n1)-c1ccccc1CC31CCCC1,inactive
10,CCC(=O)Oc1c(Sc2ccc(Cl)cc2)c(C)nn1-c1ccccc1,"inconclusive: 12 µM [inhibitor, partial curve]"
11,OCCCN1c2ccccc2Nc2nnc(-c3ccccc3)cc21,active: 1.9 µM
12,CC(C)c1ccc(OCC(=O)Nc2ccc(S(=O)(=O)Nc3ccccn3)cc2)cc1,"inconclusive: 13.5 µM [inhibitor, partial curve, poor fit]"
13,O=C(c1noc2c1CCc1ccccc1-2)N1CCOCC1,"inconclusive: 23.9 µM [inhibitor, partial curve]"
14,COc1ccccc1NS(=O)(=O)c1cccc(C(=O)N/N=C(\C)c2cccnc2)c1,inactive
15,Cc1ccc(-c2nc(C#N)c(N3CCCCC3)o2)cc1,"inconclusive: 30.1 µM [inhibitor, partial curve, poor fit]"
16,O=C1NN(c2cccc(Br)c2)C(=O)/C1=C\c1ccc(O)cc1,active: 15.1 µM
17,O=C(CSc1nnc(NC(=O)c2ccc(F)cc2F)s1)NC1CCCC1,active: 4.26 µM
18,CN(C)S(=O)(=O)c1ccc(Cl)c(NC(=O)COC(=O)/C=C/c2ccc3ccccc3n2)c1,"inconclusive: 30.1 µM [inhibitor, single point]"
19,CN(C(=O)COC(=O)Cn1cnc2c1c(=O)n(C)c(=O)n2C)C1(C#N)CCCCC1,inactive
20,COC(=O)c1sc2nc(C)cc(C)c2c1N,"inconclusive: 19 µM [inhibitor, single point]"
21,COc1cc(-c2nnc(SCC(=O)c3cc(C)n(CC4CCCO4)c3C)o2)cc(OC)c1OC (stereo unspecified),"inconclusive: 19 µM [inhibitor, partial curve]"
22,CCCCCN=Cc1c(C)[nH]n(-c2nc3ccccc3s2)c1=O,active: 4.78 µM
23,Cc1ccc(/C=N/N=C2/NC(=O)C(CC(=O)Nc3ccc(Cl)cc3)S2)o1 (stereo unspecified),inactive
